The supplement of paper PMC10126150
Sequences with one replicate were seen in a single cluster, so their values are uncertain.

Tested on: ATP
Assay: switch fluorescence ratio, 500 uM ATP over buffer (Cy3 cluster intensity, sum of 5 cycles each) (fold (ratio)); higher = stronger signal-on switching upon ATP binding; sequences stand for … in TCGTCGGCAGCGTCAGATGTGTATAAGAGACAGTTTTTTTTTTTTTTTTTTTTTTTTT…TC
Conditions: aptamer strand: ATP DNA aptamer (quencher-CACCTGGGGGAGTATTGCGGAGGAAGG + anchor), 100 nM annealed; ATP concentration: 500 uM; one replicate
Method in brief: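 Imaging in selection buffer was followed by imaging after 15 min with 500 uM ATP at 22 °C, for Cy3-labelled switching-strand clusters annealed to 100 nM quencher-labelled ATP aptamer on a modified Illumina MiSeq flow-cell. Five of these buffer/ATP cycles ran, separated by NaOH stripping and re-annealing. The fluorescence ratio per cluster is summed target-cycle over summed buffer-cycle Cy3 intensity, averaged per switch-domain sequence; clusters outside 100-1000 RFU were removed.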
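Note: ATP exposure 15 min at 22 °C before imaging.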

Row | Sequence | switch fluorescence ratio
1 | CAAGCCCAAG | 1.01
2 | CGGTCGGTCT | 0.99
3 | TTGGCTAAAA | 0.999
4 | TGTGATACAC | 1.05
5 | GGTACATATT | 0.996
6 | TTCATTCCTT | 1.06
7 | TGGGTCCTAG | 0.956
8 | ACACAGTGGC | 1.05
9 | AACATATGGT | 1.03
10 | TGGACAAGAT | 1.02
11 | TATCATAGAC | 0.99
12 | CTAAGTCGTA | 0.991
13 | AGCTTAATCG | 0.965
14 | CTTTGAGAGT | 0.978
15 | ACTACTGGA | 0.99
16 | GCCAGGTATG | 1.12
17 | AGGCGTGGCG | 0.918
18 | GGCCGCTAAG | 1.03
19 | TTGTGCAGTT | 1.06
20 | TATACACCGA | 1.05
21 | AAGTCGCAAC | 1.18
22 | AAGCGCCAAG | 1.04
23 | AATAATCCCA | 1.02

Row | Sequence | switch fluorescence ratio
24 | GCATGTTTGT | 0.977
25 | TATCGAGGCA | 1.04
26 | ATGTCAGTA | 0.985
27 | ATGGAGGAAG | 1.01
28 | CAACATATCA | 1.02
29 | ACGTGTAACA | 0.997
30 | GAGATTAATG | 0.997
31 | TTGTCGTAC | 0.973
32 | GCTGAATAGA | 1.04
33 | CTGAGGGTT | 1.01
34 | GGCCTGTAAT | 1.04
35 | CCTTAATCGG | 1.02
36 | TTTCGTTGCA | 0.986
37 | TTAGAGTTAA | 0.972
38 | GTAGTGCTGT | 0.997
39 | TGGATCGGCG | 1.01
40 | CGGCATGATT | 1.01
41 | GTTGAGCGCT | 0.944
42 | GACCATCTAG | 0.962
43 | TAGTCTGCCT | 1.04
44 | GGACTCTAGC | 1.05
45 | TAGACGCGAT | 3.36
46 | GTCCTCAACG | 1.03

Row | Sequence | switch fluorescence ratio
47 | GACTCAGAGT | 0.999
48 | GTGGAGGGAA | 1.01
49 | ATCACGAAG | 1.02
50 | TGGAATTTCC | 1.06
51 | GCTACGTTAG | 1.05
52 | GTAAACCTCT | 1.09
53 | TTGTAGAAAG | 1.01
54 | TTCCACAAGT | 1.01
55 | CGTAGGTTAC | 1.72
56 | ATACAAA | 0.967
57 | AATGCTCG | 1.06
58 | AAATTAGACG | 1.13
59 | TTCGATGGGA | 0.989
60 | AAAAACTCCG | 1.27
61 | GAGACCGTTT | 0.997
62 | GTCGCTGTTC | 0.95
63 | TTTCTCAAAG | 1.03
64 | TAAGAGAGCA | 1.03
65 | GCACTTCTTG | 1.01
66 | GAGGACGTTC | 0.942
67 | GAATTCATGC | 1.02
68 | GAAGTTTCAG | 0.957
69 | GAAGATGTTC | 1.02

Row | Sequence | switch fluorescence ratio
70 | GGAAGAGTGG | 0.97
71 | GTTTCGGGAC | 1.01
72 | ATTAATCACT | 0.97
73 | TTGTTAGGTC | 1.05
74 | GAATGGTGGT | 0.951
75 | ACCTATCACC | 1.12
76 | AGAAACAACG | 1.04
77 | TTCGCTTTCC | 1.36
78 | TACGCTTATT | 1.03
79 | GCGCATGAAC | 2.32
80 | GCGCGTAGGT | 1.05
81 | CGATGGGGC | 0.997
82 | TATCTGGCGT | 0.939
83 | CTTTAAATAG | 1.07
84 | GGGGTTAGCA | 1.03
85 | ACATGTGCTT | 1.04
86 | GCTGAATGGG | 0.945
87 | AACACGACGA | 1.21
88 | TCTATAGCGG | 1.03
89 | AGTGATGGAG | 0.966
90 | AGATAGTAAT | 1.06
91 | ATTTGGGCT | 1.02
92 | AATTCTTTTT | 0.98

Row | Sequence | switch fluorescence ratio
93 | CGCATAAAGT | 1.05
94 | CCTTGAACGA | 1.03
95 | AAGTCTTATG | 1.01
96 | ATGTTGGGAG | 1.02
97 | CTATTTTAG | 0.994
98 | GTGCTCGGGG | 1.05
99 | ATGCCATAAG | 1.02
100 | TGGCAAATAT | 1.01
101 | TGTTGAGTCT | 0.983
102 | CCCTACCGCG | 1.88
103 | TTGGGTTAAT | 1.03
104 | TCTCACTAAA | 0.995
105 | GCAAGCTCCT | 2.9
106 | GGACCGAGT | 1.01
107 | TTCGGTAAGA | 1.1
108 | GCGTGGCGTC | 0.987
109 | TTGCCACAAG | 1.01
110 | GAGGGGTCCC | 0.947
111 | CCAGACGATC | 1.09
112 | CAGGAAGGGT | 0.986
113 | TGCAATTTAT | 1.03
114 | GCTTTGGAAT | 0.977
115 | AGATTGACTA | 1.02

Row | Sequence | switch fluorescence ratio
116 | ACGAAAGGTC | 1.01
117 | TGTACTTGAA | 1
118 | AAGGAGATCG | 1.07
119 | TCGAAGTGCA | 0.957
120 | GGCATAAGCC | 1.03
121 | ATGCCGCGCA | 0.995
122 | TTAAATTCGT | 1.02
123 | GTGCACGCTT | 0.984
124 | GCAAAGTCGT | 1.03
125 | GTGGTCTTG | 0.99
126 | CGCGCACTGG | 1.32
127 | AAACCGCATG | 1.72
128 | CATTATCTTT | 1
129 | TACGGGATAG | 1.14
130 | TCCCCATCTT | 1.1
131 | GGTTGCGG | 1.02
132 | TTGTGCTGAT | 0.985
133 | CCATCTGTA | 1.03
134 | GTGGTCCCTT | 0.981
135 | GGGTCGTGCG | 1
136 | CGGTGAGCTG | 1
137 | CAGAATGACT | 0.986
138 | CGGGGTGGAT | 0.948

Row | Sequence | switch fluorescence ratio
139 | CGAAGTATTA | 1.04
140 | TAACCCAGCG | 1.32
141 | ATAGGAAATT | 0.995
142 | ATATAAATGC | 1.04
143 | CAGATTGAGT | 1.01
144 | GGGGCCAGGA | 1.06
145 | CTTATATAGT | 0.946
146 | GTGCTTCCCA | 0.991
147 | CCAGGGGAAC | 1.03
148 | ACACGGAGTC | 0.995
149 | GTGCATTAAC | 1.28
150 | AATTGAAATT | 1.01
151 | GCAATGCCGG | 0.991
152 | GGTTAGTCTC | 1.01
153 | CAAGGCTGAT | 1.02
154 | GAGCCGACTT | 0.952
155 | GCTGTGCTGA | 1.01
156 | GTTAGTCGGG | 0.957
157 | TGTCATCGGT | 1.01
